# In PubChem BioAssay AID1347165 (National Center for Advancing Translational Sciences (NCATS), 2019):
# About 5,700 (2.6%) of roughly 220,000 compounds were called active. The inconclusive results got no clear call from the source; some entries with a clear call stand among them for comparison. Calls come from the whole dose curve; as a rule, active = well fitted inhibition curve with a large enough effect; inconclusive = small, poorly fitted or top-dose-only effect; inactive = no such curve, though single readings can be large or run the other way. A potency beside an inconclusive call is a rough fit, not a confirmed value.
# Target: Lysine-specific demethylase 5B (Homo sapiens) (UniProt Q9UGL1)
# UniProt Q9UGL1, sequence (Q9UGL1 whole entry, looked up): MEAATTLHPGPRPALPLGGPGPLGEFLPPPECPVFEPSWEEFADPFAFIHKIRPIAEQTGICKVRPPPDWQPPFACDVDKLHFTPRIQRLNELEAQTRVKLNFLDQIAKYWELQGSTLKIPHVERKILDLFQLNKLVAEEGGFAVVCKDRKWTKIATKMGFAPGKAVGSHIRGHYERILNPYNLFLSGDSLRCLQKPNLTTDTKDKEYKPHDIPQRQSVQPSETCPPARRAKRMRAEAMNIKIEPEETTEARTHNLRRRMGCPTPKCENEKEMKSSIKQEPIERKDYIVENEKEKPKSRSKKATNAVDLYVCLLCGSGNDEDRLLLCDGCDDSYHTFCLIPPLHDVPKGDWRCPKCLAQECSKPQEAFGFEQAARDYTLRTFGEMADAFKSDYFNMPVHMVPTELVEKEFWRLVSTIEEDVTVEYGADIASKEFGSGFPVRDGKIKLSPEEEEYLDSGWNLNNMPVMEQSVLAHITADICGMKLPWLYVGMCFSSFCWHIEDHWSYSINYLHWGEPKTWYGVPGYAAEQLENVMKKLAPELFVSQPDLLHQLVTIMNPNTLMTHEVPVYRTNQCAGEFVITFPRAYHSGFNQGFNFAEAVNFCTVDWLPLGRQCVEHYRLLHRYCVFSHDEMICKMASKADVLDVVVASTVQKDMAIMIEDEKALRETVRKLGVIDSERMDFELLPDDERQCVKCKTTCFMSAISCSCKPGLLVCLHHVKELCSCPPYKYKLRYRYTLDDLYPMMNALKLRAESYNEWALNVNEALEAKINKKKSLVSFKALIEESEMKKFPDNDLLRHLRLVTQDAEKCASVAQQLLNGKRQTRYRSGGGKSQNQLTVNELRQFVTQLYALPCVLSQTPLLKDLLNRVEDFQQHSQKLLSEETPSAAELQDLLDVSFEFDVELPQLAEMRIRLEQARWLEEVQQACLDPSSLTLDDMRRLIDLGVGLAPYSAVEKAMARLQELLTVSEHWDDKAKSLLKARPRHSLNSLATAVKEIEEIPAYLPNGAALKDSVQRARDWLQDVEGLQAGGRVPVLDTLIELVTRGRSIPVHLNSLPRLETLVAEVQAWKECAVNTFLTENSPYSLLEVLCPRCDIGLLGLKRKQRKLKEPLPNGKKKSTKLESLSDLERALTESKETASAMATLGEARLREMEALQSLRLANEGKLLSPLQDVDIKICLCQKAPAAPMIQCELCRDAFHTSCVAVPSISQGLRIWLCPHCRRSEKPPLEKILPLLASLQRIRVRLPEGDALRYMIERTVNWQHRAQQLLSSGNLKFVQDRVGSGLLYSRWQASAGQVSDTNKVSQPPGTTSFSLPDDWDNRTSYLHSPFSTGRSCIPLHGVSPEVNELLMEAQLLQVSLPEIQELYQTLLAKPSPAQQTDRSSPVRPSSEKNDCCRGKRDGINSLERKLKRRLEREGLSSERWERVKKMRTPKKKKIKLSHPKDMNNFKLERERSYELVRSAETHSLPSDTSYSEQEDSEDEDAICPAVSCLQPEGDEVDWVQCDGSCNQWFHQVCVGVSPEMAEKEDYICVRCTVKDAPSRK
# Assay: Primary screen for KDM5B Histone Demethylases FDH-coupled qHTS; note: nearly all actives have a fitted effect of over 70% in size
# Details: FDH-coupled NADH fluorescence (FDH is formaldehyde dehydrogenase); series mostly up to 57.7 µM
# Procedure, shortened: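 Here, H3K4me3 peptide (12.5 µM in substrate mix) is demethylated by KDM5BΔAP, 200 nM final, after 10 min compound exposure. Formaldehyde product is coupled through FDH (0.25 U/mL in mix) to NADH fluorescence; 30-min ΔRFU feeds dose-response curves.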
# Potency is the fitted concentration of half-maximal effect; tags give direction and shape of the fitted curve.
row,SMILES,Potency
1,COc1cc2[nH]c(=O)n(CCCC(=O)NCc3ccccc3Cl)c(=O)c2cc1OC,"inconclusive: 2 µM [inhibitor, full curve, poor fit]"
2,COc1ccc(C(=O)NC2CCN(C(=O)c3cc4c(=O)[nH]c(C)cn4n3)CC2)c(C)c1,"inconclusive: 25.1 µM [inhibitor, single point]"
3,Cc1cc(OCCn2c(C3CC(=O)N(Cc4ccc(F)cc4)C3)nc3ccccc32)ccc1Cl (stereo unspecified),"inconclusive: 15.8 µM [inhibitor, partial curve, poor fit]"
4,COCCCNC(=O)C1CCN(c2nnc(-n3cccc3CNc3ccc(C)cc3)s2)CC1,inactive
5,O=C(NCc1ccc(Cl)cc1)c1ccnc2[nH]ccc12,active: 28.2 µM
6,CCCN(CCC)C(=O)COc1ccc2c(C)cc(=O)oc2c1,"inconclusive: 22.4 µM [inhibitor, partial curve, poor fit]"
7,CCOc1ccc(C2Cn3nnc(-c4nc(-c5ccccc5OCC)no4)c3CO2)cc1 (stereo unspecified),active: 25.1 µM
8,Cc1cc(C)n(-c2ncnc3sc(C)c(-c4ccc(F)cc4)c23)n1,"inconclusive: 39.8 µM [inhibitor, single point]"
9,CCN1CCN(CCN2CC3(CCN(C4CCOCC4)CC3)OC2=O)CC1,"inconclusive: 14.1 µM [inhibitor, partial curve, poor fit]"
10,Cc1ccc(C)c(N2CCN(CCCNC(=O)Cn3c(-c4cccs4)cc4ccccc43)CC2)c1,"inconclusive: 35.5 µM [inhibitor, partial curve, poor fit]"
11,Cc1ccccc1/[N+]([O-])=C/c1ccco1,"inconclusive: 31.6 µM [inhibitor, single point]"
12,Cn1cnnc1SCc1coc(-c2cccc(Cl)c2)n1,inactive
13,COc1ccc(-c2ccc3ncc(Nc4ccncc4)n3n2)cc1OC,inactive
14,Cn1c(NCCCO)nc2c1c(=O)n(Cc1ccc(Br)cc1)c(=O)n2C,inactive
15,CC1CCc2c(-c3ccccc3O)nc3ccc4ccccc4c3c2C1 (stereo unspecified),inactive
16,COc1cccc(N2CCN(c3nc(C(=O)NCc4ccncc4)cs3)CC2)c1,"inconclusive: 31.6 µM [inhibitor, partial curve, poor fit]"
17,CC(NC(=O)C1CCCC(C(F)(F)F)C1)c1cccc(C(F)(F)F)c1 (stereo unspecified),inactive
18,O=C(OCc1ccccc1)c1ccc(-c2nnn(Cc3ccccc3F)n2)cc1,"inconclusive: 1.41 µM [inhibitor, full curve, poor fit]"
19,Cc1ccc2scc(N3CCN(c4ccccc4)CC3)c(=O)c2c1,"inconclusive: 17.8 µM [inhibitor, single point]"
20,CCOc1ccc(CCNC(=O)c2ccc3[nH]c(C)c(C)c3c2)cc1,"inconclusive: 15.8 µM [inhibitor, partial curve, poor fit]"
21,CCn1c(Cl)c(C=O)s/c1=N\S(=O)(=O)c1ccccc1,"inconclusive: 39.8 µM [inhibitor, partial curve, poor fit]"
22,Cc1cc(N2CCCCC2)nc2ccc(NC(=O)CCC(=O)N3CCN(c4cccc(Cl)c4)CC3)cc12,"inconclusive: 35.5 µM [inhibitor, partial curve, poor fit]"

row,SMILES,Potency
1,CCN(C(=O)Cn1c(SCc2ccccc2F)nc2cccnc21)c1ccccc1,"inconclusive: 7.08 µM [inhibitor, partial curve, poor fit]"
2,COc1ccc(NC(=O)N2CCc3nc4cc(-c5ccccc5)[nH]n4c(=O)c3C2)c(C)c1,active: 10 µM
3,COc1cccc(C(=O)c2sc(Nc3ccc(C)cc3C)c(S(=O)(=O)c3ccccc3)c2N)c1,"inconclusive: 15.8 µM [inhibitor, partial curve, poor fit]"
4,CCOc1ccc(CCNC(=O)c2ccc(Cn3c(=O)c4cccn4c4cccnc43)cc2)cc1,"inconclusive: 6.31 µM [inhibitor, partial curve, poor fit]"
5,COc1ccc(-c2csc3ncnc(Nc4ccc(OC)c(OC)c4)c23)cc1,"inconclusive: 25.1 µM [inhibitor, partial curve, poor fit]"
6,CCOC(=O)c1sc2nc(C)nc(NCc3ccccc3OC)c2c1C,"inconclusive: 31.6 µM [inhibitor, partial curve, poor fit]"
7,O=C(COc1ccccc1)NC[C@H]1O[C@H](Cc2cc(CN3CCNCC3)on2)CC[C@@H]1O,"inconclusive: 31.6 µM [inhibitor, single point]"
8,O=C(Cn1c(=O)c2c(n1Cc1ccccc1)CN(Cc1ccccc1)CC2)NCc1cccc(Cl)c1,"inconclusive: 22.4 µM [inhibitor, partial curve, poor fit]"
9,Cc1ccc(/C=N/Nc2ccnc3cc(Cl)ccc23)s1,inactive
10,Cc1c(-c2ccccc2)[nH]c2c(CNC(=O)Cn3ccc(=O)[nH]c3=O)cc(Cl)cc12,active: 28.2 µM
11,COC(=O)[C@@H]1Cc2ncn(Cc3ccc(OC)cc3)c2CN1C(=O)CC(C)(C)CC(=O)O,inactive
12,CO[C@@H]1COCC[C@H]1NC(=O)c1ncc[nH]c1=O,"inconclusive: 28.2 µM [inhibitor, single point]"
13,Cc1ccc(NC(=O)Cn2c(=O)n(Cc3nc(-c4ccccc4)no3)c(=O)c3cc4c(cc32)OCO4)cc1C,"inconclusive: 3.98 µM [inhibitor, full curve, poor fit]"
14,O=C(c1ccccc1F)N(Cc1ccco1)C1CC1,inactive
15,CCCOC(=O)c1ccc(Oc2c(C)oc3cc(O)ccc3c2=O)cc1,"inconclusive: 25.1 µM [inhibitor, partial curve, poor fit]"
16,COCCNc1ncc(-c2ccc(OC)c(OC)c2)c2c1OCC2,active: 35.5 µM
17,CCNc1oc(-c2ccc(COc3cc(C)ccc3C)o2)nc1C#N,"inconclusive: 39.8 µM [inhibitor, partial curve, poor fit]"
18,Cc1c(C)c2ccc(OCC(=O)Nc3ccccc3)c(C)c2oc1=O,inactive
19,CCc1nnsc1C(=O)N(C)CCOc1ccc(C)cc1,inactive
20,CC(OC(=O)C1=CN2CCS(=O)(=O)N=C2C=C1)C(=O)Nc1ccccc1 (stereo unspecified),"inconclusive: 28.2 µM [inhibitor, partial curve, poor fit]"
21,N#Cc1ccc(CN2CCCCCCNC(=O)[C@@H]3CCC[C@@H]32)cc1,"inconclusive: 17.8 µM [inhibitor, partial curve, poor fit]"
22,COc1ccccc1NC(=O)c1cc(C(=O)Nc2ccccc2OC)n(C)n1,"inconclusive: 31.6 µM [inhibitor, single point]"

row,SMILES,Potency
1,CN(C)CCNc1oc(/C=C/c2ccccc2)nc1C#N,"inconclusive: 15.8 µM [inhibitor, partial curve, poor fit]"
2,O=C(CSc1nc2c(c(=O)[nH]1)CN(Cc1ccc(F)cc1)CC2)Nc1cccc(C(F)(F)F)c1,"inconclusive: 28.2 µM [inhibitor, partial curve, poor fit]"
3,O=C1COc2ccc(C(=O)COC(=O)c3cc(Br)ccc3Cl)cc2N1,inactive
4,C[S+](=O)([O-])c1ccc(-c2cc(C(=O)N3CCOCC3)nn3cccc23)cc1,inactive
5,Cc1cc(=O)oc2cc(OCC(=O)NCCN(C)C)c(Cl)cc12,"inconclusive: 22.4 µM [inhibitor, partial curve, poor fit]"
6,N#Cc1ccc(C(=O)N2C[C@@H]3C[C@H](C2)c2ccc(-c4cc5ccccc5s4)c(=O)n2C3)cc1,"inconclusive: 25.1 µM [inhibitor, single point]"
7,Cn1c2c(c3ccccc31)CN(C(=O)Nc1ccccc1F)CC2,active: 22.4 µM
8,Cn1nc(-c2ccc(N3CCOCC3)c(NC(=O)c3ccccc3)c2)c2ccccc2c1=O,"inconclusive: 39.8 µM [inhibitor, single point]"
9,COc1ccc(/C=C(/C#N)C(=O)Nc2cccc3ncccc23)cc1OC,inactive
10,COc1ccc(-c2nc(C3CC(=O)N(c4ccc(OC)c(OC)c4)C3)no2)cc1F (stereo unspecified),"inconclusive: 31.6 µM [inhibitor, single point]"
11,Cc1c(C(=O)OCC(=O)N2C(C)CCCC2C)oc2ccccc12 (stereo unspecified),"inconclusive: 39.8 µM [inhibitor, single point]"
12,Cc1csc(NC(=O)[C@@H]2CCC[C@@H](NCC3CC3)CN(C)C(=O)C2)n1,inactive
13,CCc1ccc(C(=O)N2CCC(n3cnnc3-c3ccccc3)CC2)cc1,inactive
14,CC(C)C(NCC(N)=O)c1cccs1 (stereo unspecified),inactive
15,Cc1ccc(-c2ccc(=O)n(CC(=O)NC(C)c3ccccc3)n2)cc1 (stereo unspecified),"inconclusive: 31.6 µM [inhibitor, single point]"
16,COc1ccc2nc(C)c(C(=O)NCc3cccnc3-n3cncn3)cc2c1,"inconclusive: 22.4 µM [inhibitor, partial curve, poor fit]"
17,COc1ccc(-c2cc(NCc3ccc(C)cc3)n3cnnc3n2)cc1,"inconclusive: 0.794 µM [inhibitor, partial curve, poor fit]"
18,O=C(NCc1cccnc1-n1cccn1)c1ccc(-c2ccc(Cl)cc2)s1,"inconclusive: 31.6 µM [inhibitor, partial curve, poor fit]"
19,Cc1noc(-c2cn(C3CCN(C(=O)c4ccc(F)c(Cl)c4)CC3)nn2)n1,inactive
20,O=S1(=O)c2ccccc2N(Cc2ccccc2Cl)c2ccccc21,"inconclusive: 25.1 µM [inhibitor, single point]"
21,CC1CCCN(C2CCN(Cc3cccc(Cl)c3)CC2)C1 (stereo unspecified),"inconclusive: 15.8 µM [inhibitor, partial curve, poor fit]"
22,COc1ccc(Nc2nc(N)nc(CSc3nc4ccccc4s3)n2)cc1,"inconclusive: 28.2 µM [inhibitor, single point]"
